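How tested: cells in 96-well plates exposed to compound for 48 hours at five concentrations. Here, GI50 denotes the concentration required for 50% inhibition of growth. At the TGI there is no net growth.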
test system: NCI-H322M lung; assay: NCI-60 cell line screen, 48 h

Structure (SMILES) | GI50 [µM] | TGI [µM]
COc1cc(NC(=O)c2cccc(C3CCc4c(cc(OC)c(OC)c4OC)O3)c2)cc(OC)c1OC (stereo not given) | 5.24 | > 100
CCCSc1nc(Nc2ccc(S(N)(=O)=O)cc2)c(C#N)c(-c2ccc(Cl)cc2)n1 | 4.05 | > 100
CN(C)c1nc(NCCNS(=O)(=O)c2ccc(C(=O)/C=C/c3ccc(F)cc3)cc2)nc(Nc2ccc(F)cc2)n1 | 4.24 | 17.8
CN(C)CCCNC(=S)Nc1ccc(/C=C/c2ccc(Cl)cc2)cc1 | 1.7 | 3.38
CCN(CC)c1ccnc(CNCCSC(c2ccccc2)(c2ccccc2)c2ccc(C)cc2)c1 | 3.48 | 13.1
